Some of the results follow.
The sequences below were run against no compound (DMSO) (assay: log2 fold change of degron read counts, EGFP-low vs EGFP+ sorted cells; higher = lower degron-EGFP level without compound (poor expression or instability)). Conditions: compound: DMSO control; 18 h.
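Also: jurkat cells carrying a lentiviral library of mutant zinc finger degrons fused to EGFP plus mCherry, mCherry+ cells FACS sorted, degron abundance counted by next-generation sequencing.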

Row | Sequence | log2 fold change of degron read counts
1 | FVCEICGRHFTQKGNLLRHIKL | -1.28
2 | FKCEQCGAQFTQKGNLLRHIKL | -2.33
3 | LCCPICGFSCTQKGNLLRHIKL | 0.443
4 | FSCDICGANFTQKGNLLRHIKL | -1.93
5 | FQCNVCGARFTQKGNLLRHIKL | -0.445
6 | FMCDQCGADFTQKGNLLRHIKL | -1.57
7 | FECDICGASFTQKGNLLRHIKL | -2.36
8 | FECEICGAKFTQKGNLLRHIKL | -1.35
9 | FRCEQCGAKFTQKGNLLRHIKL | -1.43
10 | FKCPQCGAVFTQKGNLLRHIKL | -1.14
11 | FFCNQCGRKFTQKGNLLRHIKL | -0.481
12 | FECEVCGANFTQKGNLLRHIKL | -1.9
13 | FMCNVCGAAFTQKGNLLRHIKL | -1.21
14 | FYCDVCGAVFTQKGNLLRHIKL | -0.413
15 | FKCDQCGAHFTQKGNLLRHIKL | -1.33
16 | FGCDVCGANFTQKGNLLRHIKL | -2.17
17 | LFCNQCGFPCTQKGNLLRHIKL | 1
18 | FFCEICGHAFTQKGNLLRHIKL | -1.09
19 | FVCPVCGACFTQKGNLLRHIKL | -0.469
20 | FYCNVCGAKFTQKGNLLRHIKL | -1.09
21 | FLCNICGAGFTQKGNLLRHIKL | -0.567
22 | LNCPICGFNCTQKGNLLRHIKL | 0.467
23 | FNCEICGRSFTQKGNLLRHIKL | -1.28
24 | FWCNQCGRLFTQKGNLLRHIKL | 1.5
25 | FHCSVCGHPFTQKGNLLRHIKL | 0.343

Row | Sequence | log2 fold change of degron read counts
26 | FYCEICGALFTQKGNLLRHIKL | -0.418
27 | LGCPICGFICTQKGNLLRHIKL | 1.64
28 | FYCDVCGADFTQKGNLLRHIKL | -2.14
29 | FQCEICGHPFTQKGNLLRHIKL | -0.749
30 | FKCNICGAYFTQKGNLLRHIKL | -0.617
31 | FICNQCGAPFTQKGNLLRHIKL | -0.672
32 | FVCPVCGAFFTQKGNLLRHIKL | 0.6
33 | FVCPICGHYFTQKGNLLRHIKL | 0.0571
34 | LWCEICGFICTQKGNLLRHIKL | 2.83
35 | FFCNVCGAMFTQKGNLLRHIKL | 0.769
36 | FHCPVCGAKFTQKGNLLRHIKL | -0.591
37 | FNCEICGHSFTQKGNLLRHIKL | -1.79
38 | LDCNQCGFMCTQKGNLLRHIKL | 1.01
39 | FICNQCGAGFTQKGNLLRHIKL | -1.02
40 | FCCPICGHHFTQKGNLLRHIKL | 0.25
41 | FHCDQCGAGFTQKGNLLRHIKL | -0.952
42 | FYCPVCGAMFTQKGNLLRHIKL | -0.103
43 | FDCNQCGAVFTQKGNLLRHIKL | -0.594
44 | FCCEICGRSFTQKGNLLRHIKL | -2.07
45 | FVCEICGHAFTQKGNLLRHIKL | -2.03
46 | FCCEICGAEFTQKGNLLRHIKL | -1.56
47 | FFCPICGAVFTQKGNLLRHIKL | 0.425
48 | FSCDVCGAAFTQKGNLLRHIKL | -1.56
49 | FYCDVCGAFFTQKGNLLRHIKL | 0.0643
50 | FCCNQCGAMFTQKGNLLRHIKL | -0.439
